Assay results published in the supplement of paper PMC3334620.
Over roughly 33,000 sequences, “E-score (-0.5 to 0.5)” has its median near -0.016; the highest 2% begin near 0.32. The list shows a part of the results.

Target: T1, Stp1 (UniProt B3LFK1)
T1 sequence: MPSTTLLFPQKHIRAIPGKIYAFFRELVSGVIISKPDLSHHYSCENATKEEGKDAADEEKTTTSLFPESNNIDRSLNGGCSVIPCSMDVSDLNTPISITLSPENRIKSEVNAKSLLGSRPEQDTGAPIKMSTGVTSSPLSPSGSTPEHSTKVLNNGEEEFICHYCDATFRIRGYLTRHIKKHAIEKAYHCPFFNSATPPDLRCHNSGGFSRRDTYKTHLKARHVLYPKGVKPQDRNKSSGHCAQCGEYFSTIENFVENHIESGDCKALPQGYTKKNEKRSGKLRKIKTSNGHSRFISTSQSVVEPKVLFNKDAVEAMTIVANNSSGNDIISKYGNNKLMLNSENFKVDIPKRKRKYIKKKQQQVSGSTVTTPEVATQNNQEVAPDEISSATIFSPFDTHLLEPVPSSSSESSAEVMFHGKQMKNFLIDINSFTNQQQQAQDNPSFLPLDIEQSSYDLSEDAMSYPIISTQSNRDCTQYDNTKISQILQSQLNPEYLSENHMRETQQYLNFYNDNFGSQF
Experiment: PBM E-score (8-mer binding enrichment) (E-score (-0.5 to 0.5)); higher = stronger / more preferred TF binding; most listed sequences are background and not binding sites
Conditions: protein concentration: 200 nM; construct: GST-full length
How it was run: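 GST-tagged yeast TFs (full-length or DNA-binding domain) were made by PURExpress in vitro transcription/translation and applied at about 100-200 nM to universal all-10-mer Agilent arrays. The arrays were made double-stranded by primer extension, on fresh or once-stripped slides. Bound protein was detected with fluorescent anti-GST, and scans were normalised with masliner. Each ungapped eight-base word, pooled with its reverse complement, received an E-score (modified Wilcoxon-Mann-Whitney statistic) from the Universal PBM Analysis Suite.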

Sequence | PBM E-score
CTATTCAC | 0.147
AAAACCCG | 0.0801
ACGACATG | -0.0723
TGGTACCA | 0.149
CAGCAATC | 0.0191
GGGTTAGA | -0.257
GATAGGAC | -0.257
CATCAACG | 0.0107
ACATCACT | 0.0413
CTGACAGC | -0.194
GCTGGGGA | -0.386
CTCGCACA | 0.0559
CAAAAACC | 0.204
GCATTACA | 0.0105
CCTTCACG | 0.124
CCCTGCAG | -0.12
CGTGAGAG | -0.246
GGCCAAGA | -0.261
AACTAAGT | 0.0905
GGCTGGAA | -0.168
ATGTGTCC | -0.028
CGTTTTGC | 0.18
CCAAAGTC | -0.132
GGTAGACC | -0.227
GACCGACC | -0.0875

Sequence | PBM E-score
GTGACCGA | -0.0805
CAAAGTGG | -0.159
AGTACGTA | -0.0529
GTTCGTGA | -0.0233
AAGAGGCC | -0.131
AGCGCCCT | 0.319
CACCACTG | -0.103
ATCGACGA | -0.00564
CCGACTAC | 0.00232
CAGGTCCA | -0.0938
CTTGCGCC | 0.251
ACGAAGCG | -0.0376
ATTAAGGA | 0.0308
ATTCTTTG | 0.122
GCTGATGA | -0.00753
GCCATTCA | 0.106
AGCTGCGA | -0.129
ACCCAAAC | 0.0176
CCAGGGAC | -0.191
ATGTCTTC | -0.249
ATCCCCAC | -0.0878
CTAGTGAA | -0.112
CAAACGAG | 0.0114
ATATTGAA | 0.0613
AATCATAG | 0.042

Sequence | PBM E-score
CAACAGCA | 0.0247
ACCTTCGC | -0.027
CAGCGGAG | 0.0266
GACCGGAC | -0.124
CTCTAATC | -0.115
CACGAGTC | -0.227
AAAGCCCG | -0.134
AACAAGAA | 0.208
AGTGGATG | -0.181
ACAGACCC | -0.164
TACCTGAA | 0.00092
GTTCAGAA | 0.0312
AACATTCG | -0.129
AATTACCG | 0.104
ACCTGAGC | -0.133
ACGATTAA | 0.0663
ACTCAGAT | 0.094
AGATGGCA | 0.238
TCCGCGCA | 0.161
AAAGGTGG | -0.0176
ACGGCCTA | 0.119
CGGTGCCA | 0.0766
AACTATCA | 0.13
GTATTACA | 0.0234
CTGCGCGC | 0.269

Sequence | PBM E-score
AAGCCGAG | -0.0198
ACCCGACT | -0.14
GCGAATCC | -0.106
TACTTCTA | 0.0861
AATACAGA | 0.0706
ACGAGAGG | -0.179
CGTACATA | 0.133
CATTCGGC | 0.155
GGCTGACA | 0.0532
AGCGGTCA | -0.123
TCTATTCA | 0.116
AGCAAGAT | 0.0141
AACGGGTC | -0.0829
CTCCCTTC | -0.335
CTCTTGAC | -0.0778
GTTTTGTA | 0.173
GACGCGAC | -0.0598
CAACAAAC | 0.203
GTGCACAC | -0.0838
TAGCCCAA | -0.127
CAGAACCG | 0.0388
GAACTATC | -0.184
CTAATCCA | -0.0678
CCGCCACC | -0.132
ACTCTGCG | -0.0491

Sequence | PBM E-score
ATAGCGCG | 0.136
ACACTCTG | -0.145
CATCGGCG | 0.0728
ACAGTGAC | -0.189
CGTCAATA | -0.0812
ATGCGGAC | 0.0964
CTGGTACC | -0.123
TTCGCCAA | -0.0507
GCTTCTCC | -0.305
AAATTTTG | 0.0658
ACTGTCCT | -0.097
AATTTCGG | 0.0123
AAGTCAGC | 0.0691
AGCACTGC | -0.154
ATTGCCAG | -0.132
AATACCAC | -0.0688
CTCTGGAC | -0.0647
CTCGGCTA | 0.0804
GCATAAGA | 0.0798
ATAGTACC | -0.0252
GGTACCAC | -0.186
ATTTGGCG | 0.0371
AGACTCGA | -0.1
AGGCCGAC | -0.315
TTGGCCAA | 0.0581

Sequence | PBM E-score
AAGAGTAT | -0.0582
AGCACAGC | 0.278
TGGCTTAA | 0.193
AAGGTTCA | 0.0509
TCGCTAGA | -0.104
GCGCTAGA | 0.0885
TAACTCTA | -0.181
CAGAACAC | -0.201
AAGCCTGG | -0.286
CCTGTGGC | -0.0181
ATGGATCA | -0.032
CTGTCCGA | -0.111
CATATCCA | -0.0445
CACAAGAC | -0.161
AACAGGCT | -0.132
CAAATCCC | -0.133
GTAAAAAC | 0.0895
GCTCGGAA | 0.0125
GCTCCCTA | -0.215
CCTAAACG | 0.015
ACCGAACG | 0.249
GCGCGAAA | 0.292
AGGCTACG | -0.129
AGTTTTAA | 0.161
AATGTAGG | -0.132

Sequence | PBM E-score
AGTCCCTG | -0.3
CCCTAGAC | -0.188
GACTTCGC | -0.0576
CTGTTTGA | -0.00659
CGCTGTTC | -0.108
AGCTGTGG | -0.18
CTAGGCCC | -0.353
AGTCGCTA | -0.338
CATAGCCA | -0.0996
AGCGGGTG | -0.214
GCAAGGGA | -0.0808
ACCTTCAC | -0.16
ATATTATC | 0.15
GATTACAC | 0.0767
ACGTCACC | -0.295
CGATAATC | -0.128
CACTGAAA | 0.161
GACCGTAC | -0.0763
ATGTCCAC | -0.152
ATCCTATA | 0.0456
GTGGGACA | -0.201
CAAGTCCC | -0.308
